From PubChem BioAssay AID686979 (National Center for Advancing Translational Sciences (NCATS), 2013)
Hit rate of the full screen: of about 420,000 compounds, about 50,000 (12%) were called active. The shares of active, inactive and inconclusive entries below differ from those in the screen. The call rests on the fitted dose curve; in most records, active means well fitted inhibition curve with a large enough effect; inconclusive means small, poorly fitted or top-dose-only effect; inactive means flat fitted curve, though single readings scatter. Potencies of inconclusive entries are left out as doubtful fits.
On the % scale 0 is the no-effect control and ±100 the full control effect; potency means the concentration at half of the fitted maximal effect; tags describe the fitted curve by direction and shape.

Experiment: qHTS for Inhibitors of human tyrosyl-DNA phosphodiesterase 1 (TDP1): qHTS in cells in presence of CPT; further: nearly all actives have a fitted effect of over 55% in size
Settings: chicken DT40 Tdp1-/-;hTDP1 cells + 20 nM CPT, ATP luminescence, 48 h; activity change, negative = growth inhibition: at 46.2 µM (top of the series) unless noted
Summary of the method: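 Chicken DT40 Tdp1-/- cells complemented with human TDP1, 400 cells/well, exposed to compounds plus 20 nM camptothecin for at least 48 h at 37 C; viability read as ATP content by CellTiter-Glo luminescence.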
With `COc1ccc([C@H]2CC(=O)C=C(c3cc(Br)ccc3OC)C2)cc1` the Potency was active: 18.4 µM. For `Cc1cnc(NC(=O)COc2ccc3c(c2)CCC3)s1`, the Potency was inconclusive [inhibitor, single point]. In the case of `CC[C@]12c3[nH]c4cc(-c5ccco5)ccc4c3CCN1C(=O)[C@@H](CC(=O)NC/C=C(\C)CCC=C(C)C)C[C@@H]2C(=O)N1CCN(C(=O)c2ccco2)CC1`, the Potency is reported as inconclusive [inhibitor, single point]. With `Cc1cccc(N2CCN(S(=O)(=O)c3ccc(-c4ccc(=O)[nH]n4)o3)CC2)c1C` the Potency was inconclusive [inhibitor, single point]. With `Cc1ccc(CN(C)C(=O)COC(=O)CSc2ccc([N+](=O)[O-])cc2)cc1` the Potency was inconclusive [inhibitor, single point]. In the case of `CCOCCn1c(SCc2cccc(C)c2)nc2c1c(=O)[nH]c(=O)n2C`, the “activity change, negative = growth inhibition” value is reported as inactive: -8.95%. In the case of `Nc1ccccc1-c1nc2ccccc2s1`, the “activity change, negative = growth inhibition” value is reported as inactive: 10.3%. For `CCOC(=O)c1sc(NC(=O)CSc2nnnn2-c2ccc(C)c(C)c2)nc1C`, the Potency was inconclusive [inhibitor, single point]. In the case of `CCOc1ccc(C2c3c(-c4cc(C)ccc4O)n[nH]c3C(=O)N2Cc2cccnc2)cc1OCC` (centres undefined), the “activity change, negative = growth inhibition” value is reported as inactive: 0.785%. In the case of `O=C(NCc1cccc(Cl)c1)c1cccc(S(=O)(=O)N2CCCC2)c1`, the “activity change, negative = growth inhibition” value is reported as inactive: -20.6%. With `Cc1onc(C(N)=O)c1C(=O)Nc1ncc(C(F)(F)F)cc1Cl` the “activity change, negative = growth inhibition” value was inactive: 1.15%. With `CCNC(=O)c1c(NC(C)=O)sc2c1CCCC2` the “activity change, negative = growth inhibition” value was inactive: 0.867%. For `CNC(=O)C1CCC(=O)N1Cc1c[nH]c2ccccc12` (centres undefined), the “activity change, negative = growth inhibition” value was inactive: 5.83%. In the case of `O=C(NCc1ccco1)c1ccccc1Nc1ccc(F)cc1`, the Potency is reported as inconclusive [inhibitor, partial curve, poor fit]. With `CCN(CC)c1ccc(N=Cc2ccc(N(CC)CC)cc2O)cc1` the Potency was inconclusive [inhibitor, single point]. With `CC(=O)c1cccc(NC(=O)CC2S/C(=N/N=C/c3cccs3)NC2=O)c1` (centres undefined) the “activity change, negative = growth inhibition” value was inactive: -5%. With `Cc1ccc(OCc2cc(C(=O)NCc3cnn(-c4cccc(F)c4)c3)no2)cn1` the Potency was inconclusive [inhibitor, single point]. In the case of `O=C(NCc1nc2ccccc2[nH]1)C1=C[C@@H](c2ccc(Br)cc2)C[C@@H](OCc2ccc(CO)cc2)O1`, the Potency is reported as active: 9.2 µM. In the case of `CCOC(=O)N1CCC(NC(=O)c2c(C)nn(-c3cccc(C)c3)c2-n2cccc2)CC1`, the Potency is reported as active: 20.6 µM. For `CCNCC(=O)N1c2ccccc2CCc2ccc(NC(=O)OCC)cc21`, the Potency was inconclusive [inhibitor, partial curve]. For `COc1ccc(-n2nc3c(N4CCC(C(=O)NCc5ccccc5C)CC4)nnc(C)c3c2C)cc1`, the Potency was active: 18.4 µM. With `COc1ccc(OC)c(CCNC(=O)CCCn2c(=O)c3cccn3c3ccc(F)cc32)c1` the Potency was active: 18.4 µM. In the case of `Cc1cc2ncc(-c3ccccc3)nc2cc1C`, the “activity change, negative = growth inhibition” value is reported as inactive: -12.9%. With `CCC(=O)N1CCc2cc(S(=O)(=O)NCCC(=O)NC3CCCCCC3)ccc21` the Potency was inconclusive [inhibitor, single point]. For `CCOC(=O)c1ccc(NC(=O)CSc2nc3c(c(=O)[nH]2)CN(Cc2ccccc2)CC3)cc1`, the Potency was inconclusive [inhibitor, single point]. For `COc1ccc(NC(=S)N(Cc2cccnc2)Cc2cc3cc(OC)c(OC)cc3[nH]c2=O)cc1`, the Potency was inconclusive [inhibitor, single point]. In the case of `CCOC(=O)[C@H]1[C@H]2COc3ccccc3[C@@H]2N2C(=O)c3ccc(C)cc3NC(=O)[C@@]12C`, the Potency is reported as inconclusive [inhibitor, single point]. For `O=C(CSc1nc2ccccc2c(=O)n1CCCN1CCOCC1)Nc1ccccc1OC(F)F`, the Potency was active: 18.4 µM. For `O=C(O)CC(C(=O)O)c1ccc(OCCCCOc2ccc(C(CC(=O)O)C(=O)O)cc2)cc1` (centres undefined), the “activity change, negative = growth inhibition” value was inactive: 1.5%. For `CC(C)(C)C(=O)NCCc1nc2ccccc2n1CCCCOc1ccccc1`, the Potency was inconclusive [inhibitor, single point]. In the case of `Cc1cccc(NC(=S)N2CCC(NC(=O)c3cccc(F)c3)CC2)c1`, the “activity change, negative = growth inhibition” value is reported as inactive: 11%. For `Cc1ccc(NC2=C(Cl)C(=O)c3ccccc3C2=O)cc1`, the Potency was active: 8.2 µM. In the case of `O=C(NCCc1csc(-c2cccnc2)n1)c1ccco1`, the “activity change, negative = growth inhibition” value is reported as inactive: -1.51%. With `COc1ccc(C(=O)Nc2ccc(NC(=O)C3CCCCC3)nc2)cc1` the “activity change, negative = growth inhibition” value was inactive: 10.9%. For `Cc1ccc(/C=C2\SC(=S)N(CCC(=O)NNC(=O)c3cccnc3)C2=O)cc1`, the Potency was active: 16.4 µM. With `CC1=CC2=NC(=O)/C(=C\c3cc(C)n(-c4ccc(F)cc4)c3C)C(=N)N2O1` the Potency was inconclusive [inhibitor, full curve]. For `CN(CC(=O)Nc1ccc(C#N)cc1)Cc1ccc(Cl)cc1`, the Potency was inconclusive [inhibitor, single point]. For `CCc1cc(=O)oc2c(C)c(OCC(=O)N3CCC(C(=O)O)CC3)ccc12`, the “activity change, negative = growth inhibition” value was inactive: -12.2%. With `CC1CCN(S(=O)(=O)c2ccc(NC(=O)CNC3CCCCC3)cc2)CC1` the Potency was inconclusive [inhibitor, single point]. In the case of `O=C(CNC(=O)c1n[nH]c2ccccc12)Nc1cc(Cl)ccc1Cl`, the Potency is reported as inconclusive [inhibitor, single point]. With `CCOc1ccc(-n2ccnc2SCC(=O)N2CCCc3ccccc32)cc1` the Potency was inconclusive [inhibitor, single point]. With `O=C(NC1CC1)c1ccc2c(c1)N(Cc1ccccc1)CCS2` the Potency was inconclusive [inhibitor, single point]. With `CCCCSc1nc2c([nH]1)c(=S)n(C)c(=O)n2C` the Potency was active: 1.3 µM. In the case of `O=S(=O)(NCc1ccc(F)cc1)c1ccc(N2CCCCS2(=O)=O)cc1`, the Potency is reported as active: 23.1 µM. In the case of `O=C(/C=C\c1cn(-c2ccccc2)nc1-c1cccs1)N1CCOCC1`, the Potency is reported as inconclusive [inhibitor, single point]. With `C[C@H](O)CNC(=O)c1[nH]cnc1C(=O)Nc1ccc(CNC(=O)OC(C)(C)C)cc1` the Potency was inconclusive [inhibitor, single point]. With `Cc1ccc(CSc2cn(CC(=O)N3CCCCCC3)c3ccccc23)cc1` the Potency was inconclusive [inhibitor, single point]. For `Cc1cc(CN(C)C(=O)c2cc(COc3ccc(C)c(C)c3)on2)on1`, the “activity change, negative = growth inhibition” value was inactive: -20.9%. In the case of `COc1cccc(CNC(=O)Cn2ncc3c(=O)oc4ccccc4c32)c1`, the Potency is reported as inconclusive [inhibitor, full curve]. With `CCOc1ccccc1CNCCCSc1nnnn1C` the “activity change, negative = growth inhibition” value was inactive: -1.03%. With `CCCc1cc(=O)oc2cc(OCC(=O)NCCN3CCOCC3)c(Cl)cc12` the Potency was active: 23.1 µM. In the case of `COc1ccc(NC(=O)CCS(=O)(=O)c2ccccc2)c(OC)c1`, the “activity change, negative = growth inhibition” value is reported as inactive: 7.04%. With `O=Cc1ccc(C(=O)OCC(=O)Nc2ccc(F)cc2F)cc1` the “activity change, negative = growth inhibition” value was inactive: 17%. For `CCOC(=O)c1c(-c2ccccc2)oc2ccc(O)c(CN3CCN(C)CC3)c12`, the Potency was active: 2.06 µM. With `C=CCN1C(=O)/C(=C\c2ccco2)C(C(=O)OC)=C1C` the activity change, negative = growth inhibition was inconclusive: -31.6% [inhibitor]. For `CN1CCN(c2ccc(CNC(=O)C3Cc4c(-c5ccc(Cl)cc5)ccnc4O3)cc2)CC1` (centres undefined), the Potency was inconclusive [inhibitor, partial curve, poor fit]. With `O=C(Nc1ccccc1)c1sc(Cl)nc1-c1ccccc1` the Potency was inconclusive [inhibitor, single point]. For `Cc1onc(-c2ccccc2)c1C(=O)NCc1ccccc1F`, the “activity change, negative = growth inhibition” value was inactive: 1.58%. With `CC(=O)Nc1c(Cl)c(Cl)c2c(c1Cl)C(=O)c1cc(Cl)ccc1-2` the Potency was inconclusive [inhibitor, single point]. With `O=C(NNC(=O)c1c(O)c2ccccc2[nH]c1=O)c1ccccc1Br` the Potency was inconclusive [inhibitor, single point]. In the case of `Nc1ncnc2nc(SCC(=O)Nc3cccc(C(F)(F)F)c3)[nH]c12`, the “activity change, negative = growth inhibition” value is reported as inactive: -14.2%. With `COc1cc(C(=O)Nc2cccc(-c3nnc(-c4ccco4)o3)c2)ccc1OC(C)=O` the Potency was active: 13 µM. With `CN(C(=O)c1cc(C(=O)N(C)c2ccccc2)cc([N+](=O)[O-])c1)c1ccccc1` the Potency was inconclusive [inhibitor, single point]. With `CCCN(Cc1cc2cccc(C)c2[nH]c1=O)C(=O)c1cccc(Cl)c1` the Potency was inconclusive [inhibitor, single point]. For `Cn1cc(C(=O)N/N=C/c2cccc([N+](=O)[O-])c2)c2ccccc21`, the “activity change, negative = growth inhibition” value was inactive: -4.65%. With `COc1ccc2c(Cn3cnc4cc([N+](=O)[O-])ccc4c3=O)cc(=O)oc2c1` the Potency was active: 5.17 µM. For `O=C(Nc1cccc(-c2nc3ccccc3s2)c1)c1cc(-n2cnnc2)ccc1Cl`, the Potency was active: 9.2 µM. For `CCOC(=O)C1(CC2CC2)CCN(Cc2cn(C)c3ccccc23)CC1`, the Potency was active: 20.6 µM. For `O=C(OCN1C(=O)C(=O)c2ccccc21)c1ccc(Cl)cc1`, the Potency was inconclusive [inhibitor, single point]. For `CCN(c1ccccc1)S(=O)(=O)c1ccc(OC)c(NC(=O)Cc2ccc(OC)c(OC)c2)c1`, the Potency was inconclusive [inhibitor, partial curve, poor fit]. For `CC1CC1C(=O)OCC(=O)Nc1ccc2[nH]c(=O)[nH]c2c1` (centres undefined), the “activity change, negative = growth inhibition” value was inactive: -12.8%. With `Cc1cc(=O)n2c3ccccc3n(CC(O)CN3CCN(Cc4ccccc4)CC3)c2c1C#N` (centres undefined) the Potency was active: 11.6 µM. In the case of `O=C(COc1ccccc1Br)N1CCN(C(=O)c2ccco2)CC1`, the Potency is reported as inconclusive [inhibitor, single point]. With `CN(CC(=O)Nc1ccccc1Cl)C(=O)Cn1cnc2ccc(Cl)cc2c1=O` the “activity change, negative = growth inhibition” value was inactive: -18.6%.
